Positions count from the first letter of the chain named. Some of the results follow.
T1: RBFOX1 RRM RbFoxmut (Fox-RRM*) (Homo sapiens, UniProt Q9NWB1 109-208, R118D;E147R;N151S;E152T)
T1 sequence: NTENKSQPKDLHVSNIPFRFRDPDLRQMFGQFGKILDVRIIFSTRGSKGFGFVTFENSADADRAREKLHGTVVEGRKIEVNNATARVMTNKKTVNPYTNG

B1: CUGAUUU (DNA:RNA)
RNA: GGGAGACCGGAAUUCAGAUUGUCCCUGAUUUUUAAAUCCCGUCGUAGCCACCA
DNA 1: CAATCTGAATTCCGGTCTCCC
DNA 2: TGGTGGCTACGACGGGATT
B2: CAAUGAC (DNA:RNA)
RNA: B1 RNA with U26A, G27A, A28U, U29G, U30A, U31C
DNA 1: CAATCTGAATTCCGGTCTCCC
DNA 2: TGGTGGCTACGACGGGATT
B3: GUAAGCA (DNA:RNA)
RNA: B1 RNA with C25G, G27A, U29G, U30C, U31A
DNA 1: CAATCTGAATTCCGGTCTCCC
DNA 2: TGGTGGCTACGACGGGATT
B4: CAAGUUA (DNA:RNA)
RNA: B1 RNA with U26A, G27A, A28G, U31A
DNA 1: CAATCTGAATTCCGGTCTCCC
DNA 2: TGGTGGCTACGACGGGATT
B5: UCGUUUA (DNA:RNA)
RNA: B1 RNA with C25U, U26C, A28U, U31A
DNA 1: CAATCTGAATTCCGGTCTCCC
DNA 2: TGGTGGCTACGACGGGATT
B6: UUAUUCU (DNA:RNA)
RNA: B1 RNA with C25U, G27A, A28U, U30C
DNA 1: CAATCTGAATTCCGGTCTCCC
DNA 2: TGGTGGCTACGACGGGATT
B7: CUCGCAA (DNA:RNA)
RNA: B1 RNA with G27C, A28G, U29C, U30A, U31A
DNA 1: CAATCTGAATTCCGGTCTCCC
DNA 2: TGGTGGCTACGACGGGATT
B8: ACUCUCA (DNA:RNA)
RNA: B1 RNA with C25A, U26C, G27U, A28C, U30C, U31A
DNA 1: CAATCTGAATTCCGGTCTCCC
DNA 2: TGGTGGCTACGACGGGATT
B9: UUAAGCU (DNA:RNA)
RNA: B1 RNA with C25U, G27A, U29G, U30C
DNA 1: CAATCTGAATTCCGGTCTCCC
DNA 2: TGGTGGCTACGACGGGATT
B10: CUCGUUG (DNA:RNA)
RNA: B1 RNA with G27C, A28G, U31G
DNA 1: CAATCTGAATTCCGGTCTCCC
DNA 2: TGGTGGCTACGACGGGATT
B11: GGCGAAU (DNA:RNA)
RNA: B1 RNA with C25G, U26G, G27C, A28G, U29A, U30A
DNA 1: CAATCTGAATTCCGGTCTCCC
DNA 2: TGGTGGCTACGACGGGATT
B12: CUGUGAG (DNA:RNA)
RNA: B1 RNA with A28U, U29G, U30A, U31G
DNA 1: CAATCTGAATTCCGGTCTCCC
DNA 2: TGGTGGCTACGACGGGATT
B13: UUGCUUC (DNA:RNA)
RNA: B1 RNA with C25U, A28C, U31C
DNA 1: CAATCTGAATTCCGGTCTCCC
DNA 2: TGGTGGCTACGACGGGATT
B14: UAUCCGA (DNA:RNA)
RNA: GGGAGACCGGAAUUCAGAUUGUCCUAUCCGAUUAAAUCCCGUCGUAGCCACCA
DNA 1: CAATCTGAATTCCGGTCTCCC
DNA 2: TGGTGGCTACGACGGGATT
B15: AGCUGGG (DNA:RNA)
RNA: B14 RNA with U25A, A26G, U27C, C28U, C29G, A31G
DNA 1: CAATCTGAATTCCGGTCTCCC
DNA 2: TGGTGGCTACGACGGGATT
B16: CUGUGCA (DNA:RNA)
RNA: B1 RNA with A28U, U29G, U30C, U31A
DNA 1: CAATCTGAATTCCGGTCTCCC
DNA 2: TGGTGGCTACGACGGGATT
B17: UGCCCUA (DNA:RNA)
RNA: B14 RNA with A26G, U27C, G30U
DNA 1: CAATCTGAATTCCGGTCTCCC
DNA 2: TGGTGGCTACGACGGGATT
B18: CAGUGUU (DNA:RNA)
RNA: B1 RNA with U26A, A28U, U29G
DNA 1: CAATCTGAATTCCGGTCTCCC
DNA 2: TGGTGGCTACGACGGGATT
B19: ACUUCAC (DNA:RNA)
RNA: B14 RNA with U25A, A26C, C28U, G30A, A31C
DNA 1: CAATCTGAATTCCGGTCTCCC
DNA 2: TGGTGGCTACGACGGGATT
B20: AUAGAUA (DNA:RNA)
RNA: B1 RNA with C25A, G27A, A28G, U29A, U31A
DNA 1: CAATCTGAATTCCGGTCTCCC
DNA 2: TGGTGGCTACGACGGGATT
B21: GGAUUUA (DNA:RNA)
RNA: B1 RNA with C25G, U26G, G27A, A28U, U31A
DNA 1: CAATCTGAATTCCGGTCTCCC
DNA 2: TGGTGGCTACGACGGGATT
B22: CCUUCAG (DNA:RNA)
RNA: B14 RNA with U25C, A26C, C28U, G30A, A31G
DNA 1: CAATCTGAATTCCGGTCTCCC
DNA 2: TGGTGGCTACGACGGGATT
B23: ACGGGCU (DNA:RNA)
RNA: B1 RNA with C25A, U26C, A28G, U29G, U30C
DNA 1: CAATCTGAATTCCGGTCTCCC
DNA 2: TGGTGGCTACGACGGGATT
B24: CGAGCCC (DNA:RNA)
RNA: B1 RNA with U26G, G27A, A28G, U29C, U30C, U31C
DNA 1: CAATCTGAATTCCGGTCTCCC
DNA 2: TGGTGGCTACGACGGGATT
B25: ACUGGGA (DNA:RNA)
RNA: B14 RNA with U25A, A26C, C28G, C29G
DNA 1: CAATCTGAATTCCGGTCTCCC
DNA 2: TGGTGGCTACGACGGGATT
B26: CUCUGUG (DNA:RNA)
RNA: B1 RNA with G27C, A28U, U29G, U31G
DNA 1: CAATCTGAATTCCGGTCTCCC
DNA 2: TGGTGGCTACGACGGGATT
B27: CUUCGGA (DNA:RNA)
RNA: B14 RNA with U25C, A26U, C29G
DNA 1: CAATCTGAATTCCGGTCTCCC
DNA 2: TGGTGGCTACGACGGGATT
B28: UGUUCUU (DNA:RNA)
RNA: B14 RNA with A26G, C28U, G30U, A31U
DNA 1: CAATCTGAATTCCGGTCTCCC
DNA 2: TGGTGGCTACGACGGGATT
B29: GGCACGU (DNA:RNA)
RNA: B1 RNA with C25G, U26G, G27C, U29C, U30G
DNA 1: CAATCTGAATTCCGGTCTCCC
DNA 2: TGGTGGCTACGACGGGATT
B30: GGUGCAA (DNA:RNA)
RNA: B14 RNA with U25G, A26G, C28G, G30A
DNA 1: CAATCTGAATTCCGGTCTCCC
DNA 2: TGGTGGCTACGACGGGATT
B31: AAAGGCC (DNA:RNA)
RNA: B14 RNA with U25A, U27A, C28G, C29G, G30C, A31C
DNA 1: CAATCTGAATTCCGGTCTCCC
DNA 2: TGGTGGCTACGACGGGATT

What follows are binders tested against T1, RBFOX1 RRM RbFoxmut (Fox-RRM*) (assay: EMSA; HiTS-Eq, 1 nM pool, 10 min; buffer printed only for the single-RNA assays: 10 mM Tris pH 7.5, 150 mM NaCl, 3.4 mM EDTA, 0.001% NP-40, 30 C). Conditions: tags: His6 N-terminal (pET28a); label: 5' 32P.
Summary of the method: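 Purified RbFox RRM, wild type or mutant, was incubated for 10 min in 50 µL with 1 nM of a 5′-radiolabelled RNA pool carrying 7 randomized nucleotides, whose flanks were annealed to DNA oligonucleotides, over a series of increasing protein concentrations. Unbound RNA was resolved on 8% native PAGE, cut out, reverse-transcribed, barcoded by PCR and sequenced on an Illumina HiSeq 2500. Relative association constants were derived from changes in read counts for each RNA species versus the control reaction and normalised to the cognate motif.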

| Binder | binding signal |
| --- | --- |
| B1 | 0.0834 KA relative to UGCAUGU |
| B2 | 0.11 KA relative to UGCAUGU |
| B3 | 0.129 KA relative to UGCAUGU |
| B4 | 0.141 KA relative to UGCAUGU |
| B5 | 0.163 KA relative to UGCAUGU |
| B6 | 0.091 KA relative to UGCAUGU |
| B7 | 0.0789 KA relative to UGCAUGU |
| B8 | 0.118 KA relative to UGCAUGU |
| B9 | 0.0881 KA relative to UGCAUGU |
| B10 | 0.151 KA relative to UGCAUGU |
| B11 | 0.107 KA relative to UGCAUGU |
| B12 | 0.121 KA relative to UGCAUGU |
| B13 | 0.157 KA relative to UGCAUGU |
| B14 | 0.0934 KA relative to UGCAUGU |
| B15 | 0.0929 KA relative to UGCAUGU |
| B16 | 0.226 KA relative to UGCAUGU |

| Binder | binding signal |
| --- | --- |
| B17 | 0.103 KA relative to UGCAUGU |
| B18 | 0.122 KA relative to UGCAUGU |
| B19 | 0.0914 KA relative to UGCAUGU |
| B20 | 0.126 KA relative to UGCAUGU |
| B21 | 0.0995 KA relative to UGCAUGU |
| B22 | 0.114 KA relative to UGCAUGU |
| B23 | 0.106 KA relative to UGCAUGU |
| B24 | 0.0568 KA relative to UGCAUGU |
| B25 | 0.0985 KA relative to UGCAUGU |
| B26 | 0.151 KA relative to UGCAUGU |
| B27 | 0.0749 KA relative to UGCAUGU |
| B28 | 0.081 KA relative to UGCAUGU |
| B29 | 0.222 KA relative to UGCAUGU |
| B30 | 0.0819 KA relative to UGCAUGU |
| B31 | 0.109 KA relative to UGCAUGU |

Reference: PMC9911399, “Two distinct binding modes provide the RNA-binding protein RbFox with extraordinary sequence specificity”
